Experimental data as given in publication PMC5540273 (PLoS ONE, 2017).
For some of these results: This list holds what a sample rich in strong results left over. The entries are a selection whose mix differs from that of the whole data set.

Assays:
Settings in all cases: concentration: 1 μM,replicates: in singlicate; n = 1
[1] = test system: PKN2
[2] = test system: PLK1
[3] = test system: PLK2
[4] = test system: PLK3
[5] = test system: PLK4
[6] = test system: PRKCD
[7] = test system: PRKCE
[8] = test system: PRKCH
[9] = test system: PRKCI
[10] = test system: PRKCQ
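Further: KINOMEscan kinase panel screen.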

| Structure (SMILES) | %Inh [1] | %Inh [2] | %Inh [3] | %Inh [4] | %Inh [5] | %Inh [6] | %Inh [7] | %Inh [8] | %Inh [9] | %Inh [10] |
| --- | --- | --- | --- | --- | --- | --- | --- | --- | --- | --- |
| Cc1cc(C)cc(Oc2nccc(-c3c(-c4ccc(F)cc4)ncn3C3CCNCC3)n2)c1.O=C(O)C(F)(F)F.O=C(O)C(F)(F)F.O=C(O)C(F)(F)F [SB-284851] | 0% | 14% | 0% | 0% | 0% | 0% | 0% | 0% | 100% | 0% |
| O=C1NC(=O)C(c2ccc(Cl)cc2)=C1Nc1ccc(O)c(Cl)c1 [SB-405367] | 16% | 4% | 32% | 7% | 2% | 38% | 0% | 8% | 28% | 0% |
| CS(=O)(=O)c1ccccc1-c1nc(-c2ccc(F)cc2)c(-c2ccncc2)[nH]1 [SB-213663] | 21% | 0% | 0% | 0% | 11% | 0% | 27% | 0% | 29% | 0% |
| COc1ccc(C2=C(Nc3cccc(Cl)c3)C(=O)NC2=O)cc1 [SB-326892] | 0% | 38% | 0% | 9% | 0% | 29% | 0% | 0% | 16% | 29% |
| Cc1ccc(C)c(Oc2nccc(-c3c(-c4ccc(F)cc4)ncn3C3CCNCC3)n2)c1.O=C(O)C(F)(F)F.O=C(O)C(F)(F)F.O=C(O)C(F)(F)F [SB-284852] | 32% | 18% | 0% | 11% | 0% | 14% | 1% | 0% | 46% | 30% |
| O=C1NC(=O)C(c2ccc(Cl)cc2)=C1Nc1cccc(C(=O)O)c1 [SB-360737] | 0% | 0% | 0% | 1% | 5% | 0% | 0% | 12% | 1% | 0% |
| O=C1NC(=O)c2c1c(-c1ccccc1)cc1[nH]c3ccc(O)cc3c21 | 100% | 76% | 97.2% | 89% | 53% | 61% | 5% | 34% | 0% | 72% |
| O=C1NC(=O)C(c2ccccc2Cl)=C1Nc1ccccc1 [SB-376715] | 21% | 6% | 0% | 0% | 19% | 0% | 24% | 0% | 23% | 5% |
| O=C1NC(=O)C(c2ccc(Cl)cc2)=C1Nc1ccccc1 [SB-317661] | 0% | 23% | 6% | 17% | 0% | 7% | 1% | 0% | 0% | 0% |
| O=C(O)c1ccc(-c2nc(-c3ccc(F)cc3)c(-c3ccncc3)[nH]2)cc1 [SB-202620] | 21% | 0% | 15% | 21% | 25% | 33% | 0% | 0% | 41% | 0% |
| O=C1NC(=O)C(c2ccccc2)=C1Nc1cc(Cl)c(O)c(Cl)c1 [SB-390530] | 0% | 30% | 0% | 13% | 11% | 0% | 0% | 0% | 0% | 40% |
| O=C1NC(=O)C(c2ccccc2)=C1Nc1ccc(Cl)c(C(=O)O)c1 [SB-390532] | 0% | 0% | 0% | 0% | 4% | 0% | 30% | 0% | 13% | 0% |
| COc1cccc(C2=C(Nc3ccc(SC)cc3)C(=O)NC2=O)c1 [SB-331032] | 0% | 24% | 27% | 12% | 19% | 12% | 44% | 0% | 4% | 0% |
| O=C1NC(=O)C(c2ccc(Cl)cc2)=C1Nc1cccc(O)c1 [SB-333613] | 9% | 35% | 28% | 11% | 34% | 8% | 41% | 0% | 28% | 0% |
| O=C1NC(=O)C(c2ccccc2Cl)=C1Nc1cccc(C(=O)O)c1 [SB-390526] | 0% | 6% | 0% | 0% | 7% | 0% | 2% | 0% | 0% | 0% |
| CSc1ccc(NC2=C(c3cccc(Cl)c3)C(=O)NC2=O)cc1 [SB-341528] | 23% | 13% | 0% | 0% | 0% | 16% | 0% | 0% | 10% | 0% |
